Experimental data published in the supplement of paper PMC10369915.
This is one part of the list. Cut-off read from the data, not from the text of the source: active = 3.2 or more and inactive = the rest. Most of these values are background signal.

B1: CDC42BPB_Y1638 (peptide)
chain: SRNKPYISWPS
B2: CDC5L_Y459_Y459C (peptide)
chain: DGMADCSDPSY
B3: CDC5L_Y459_YF (peptide)
chain: DGMADYSDPSF
B4: CDC73_Y293 (peptide)
chain: AAYNRYDQERF
B5: CDCP1_Y707_D709G (peptide)
chain: PAVGIYNGNIN
B6: CDH1_Y876 (peptide)
chain: KLADMYGGGED
B7: CDH17_Y489 (peptide)
chain: SSKILYHIIKG
B8: CDH23_Y1672 (peptide)
chain: NGTVTYAIVAG
B9: CDH23_Y1672_T1671S (peptide)
chain: NGTVSYAIVAG
B10: CDH23_Y2949 (peptide)
chain: AIIGIYILRDD
B11: CDH5_Y82 (peptide)
chain: RKNAKYLLKGE
B12: CDH5_Y82_N79T (peptide)
chain: RKTAKYLLKGE
B13: CDK11B_Y449 (peptide)
chain: IEEGTYGVVYR
B14: CDK11B_Y449_V452A (peptide)
chain: IEEGTYGVAYR
B15: CDK11B_Y453_V452A_YF (peptide)
chain: TFGVAYRAKDK
B16: CDK11B_Y453_YF (peptide)
chain: TFGVVYRAKDK
B17: CDK13_Y716_G714R (peptide)
chain: IGERTYGQVYK
B18: CDK2_Y15_V18L (peptide)
chain: IGEGTYGVLYK
B19: CDK2_Y15_V18L_YF (peptide)
chain: IGEGTYGVLFK
B20: CDK2_Y15_Y15S (peptide)
chain: IGEGTSGVVYK
B21: CDK2_Y19 (peptide)
chain: TYGVVYKARNK
B22: CDK2_Y19_V18L (peptide)
chain: TYGVLYKARNK
B23: CDK2_Y19_Y15S (peptide)
chain: TSGVVYKARNK
B24: CDKL5_Y171 (peptide)
chain: ANYTEYVATRW
B25: CDKL5_Y171_R175S_YF (peptide)
chain: ANFTEYVATSW
B26: CDKL5_Y171_YF (peptide)
chain: ANFTEYVATRW
B27: CDKL5_Y177_P180L (peptide)
chain: VATRWYRSLEL
B28: CDKL5_Y177_R178P (peptide)
chain: VATRWYPSPEL
B29: CDKL5_Y177_R178Q (peptide)
chain: VATRWYQSPEL
B30: CDKL5_Y177_R178W (peptide)
chain: VATRWYWSPEL
B31: CDKN1B_Y74_P69L (peptide)
chain: LLEGKYEWQEV
B32: CDKN2A_Y44 (peptide)
chain: NAPNSYGRRPI
B33: CEACAM7_Y236 (peptide)
chain: TLNVRYESVQA
B34: CEACAM7_Y236_Y236H (peptide)
chain: TLNVRHESVQA
B35: CEFIP_Y210 (peptide)
chain: THQNSYQPGRK
B36: CEFIP_Y210_N208K (peptide)
chain: THQKSYQPGRK
B37: CEMIP2_Y1015 (peptide)
chain: ITRDEYPSNPM

Molecular target: SHP2 C-SH2 domain E139D
Test: enrichment score (SH2-bound / input frequency) (ratio); bacterial display of known human phosphotyrosine sites (pTyr-Var adds point mutants) read by sequencing; higher = stronger binding; tyrosines were phosphorylated by kinases first
Details: peptide library: pTyr-Var
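Note: displayed peptides selected on beads carrying the immobilized SH2 domain, with library peptides lacking any tyrosine serving as negative controls.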

Enrichment score, active:
B9 4.1
B10 3.39

Enrichment score, inactive:
B1 2.21
B2 0.488
B3 0.497
B4 0.783
B5 0.747
B6 0.608
B7 1.61
B8 1.9
B11 0.778
B12 0.36
B13 0.692
B14 0.67
B15 0.444
B16 0.585
B17 0.67
B18 0.966
B19 1.07
B20 0.719
B21 0.311
B22 0.355
B23 0.466
B24 0.921
B25 0.938
B26 0.8
B27 0.611
B28 0.945
B29 1.12
B30 1.52
B31 1.19
B32 0.248
B33 0.975
B34 0.693
B35 0.59
B36 0.425
B37 0.59

Molecular target: SHP2 C-SH2 domain wild-type
Test: as above
Details: peptide library: pTyr-Var

Enrichment score, active:
B9 6.24

Enrichment score, inactive:
B1 1.81
B2 0.442
B3 0.533
B4 0.556
B5 0.868
B6 0.507
B7 2.47
B8 3.17
B10 3.06
B11 0.388
B12 0.367
B13 0.755
B14 0.759
B15 0.472
B16 0.45
B17 0.6
B18 0.888
B19 1.18
B20 0.801
B21 0.433
B22 0.365
B23 0.44
B24 0.931
B25 1.13
B26 0.823
B27 0.589
B28 0.987
B29 0.667
B30 1.68
B31 1.16
B32 0.283
B33 1.06
B34 0.765
B35 0.508
B36 0.675
B37 0.593

Molecular target: SHP2 N-SH2 domain L43F
Test: as above
Details: peptide library: pTyr-Var

Enrichment score, inactive:
B1 1.91
B2 0.406
B3 0.61
B4 0.773
B5 0.654
B6 0.461
B7 1.3
B8 1.02
B9 1.71
B10 2.71
B11 0.265
B12 0.567
B13 0.81
B14 0.695
B15 0.42
B16 0.579
B17 0.535
B18 1.04
B19 1.05
B20 0.736
B21 0.48
B22 0.375
B23 0.515
B24 0.872
B25 1.05
B26 0.881
B27 0.542
B28 0.924
B29 0.892
B30 1.59
B31 1.6
B32 0.276
B33 1.41
B34 0.652
B35 0.665
B36 0.516
B37 0.583

Molecular target: SHP2 N-SH2 domain T42A
Test: as above
Details: peptide library: pTyr-Var

Enrichment score, active:
B9 4.96
B33 5.53

Enrichment score, inactive:
B1 1.69
B2 0.493
B3 0.461
B4 0.551
B5 0.539
B6 0.603
B7 1.95
B8 3.14
B10 2.51
B11 0.495
B12 0.458
B13 0.557
B14 0.657
B15 0.425
B16 0.469
B17 0.585
B18 0.836
B19 0.963
B20 0.644
B21 0.412
B22 0.432
B23 0.565
B24 0.812
B25 1.04
B26 0.845
B27 0.555
B28 1.07
B29 0.753
B30 1.57
B31 1.55
B32 0.216
B34 0.674
B35 0.47
B36 0.436
B37 0.519

Molecular target: SHP2 N-SH2 domain T52S
Test: as above
Details: peptide library: pTyr-Var

Enrichment score, inactive:
B1 2.02
B2 0.544
B3 0.452
B4 0.678
B5 1.09
B6 0.666
B7 1.45
B8 1.14
B9 1.56
B10 2.43
B11 0.562
B12 0.566
B13 0.8
B14 0.638
B15 0.4
B16 0.495
B17 0.579
B18 0.807
B19 0.768
B20 0.684
B21 0.65
B22 0.408
B23 0.452
B24 0.803
B25 1
B26 0.88
B27 0.567
B28 0.831
B29 0.753
B30 1.31
B31 1.47
B32 0.301
B33 1.76
B34 0.726
B35 0.546
B36 0.301
B37 0.562

Molecular target: SHP2 N-SH2 domain wild-type
Test: as above
Details: peptide library: pTyr-Var

Enrichment score, inactive:
B1 1.83
B2 0.744
B3 0.581
B4 0.645
B5 1.38
B6 0.488
B7 1.59
B8 0.748
B9 0.679
B10 2.87
B11 0.156
B12 0.46
B13 0.862
B14 0.781
B15 0.476
B16 0.477
B17 0.606
B18 1.13
B19 1.3
B20 1.11
B21 0.457
B22 0.375
B23 0.516
B24 0.901
B25 1.02
B26 0.918
B27 0.479
B28 0.939
B29 0.936
B30 1.42
B31 1.46
B32 0.241
B33 1.07
B34 0.726
B35 0.574
B36 0.459
B37 0.449
